Here are results for 7 variants from paper PMC7272049 (2020).

The labels stand for the following.
B1: mCTLA-4 hIgG1 [mouse] / WT mB7-1 mCherry [mouse] (parent complex)
chain 1: not shown
chain 2: VDEQLSKSVKDKVLLPCRYNSPHEDESEDRIYWQKHDKVVLSVIAGKLKVWPEYKNRTLYDNTTYSLIILGLVLSDRGTYSCVVQKKERGTYEVKHLALVKLSIKADFSTPNITESGNPSADTKRITCFASGGFPKPRFSWLENGRELPGINTTISQDPESELYTISSQLDFNTTRNHTIKCLIKYGDAHVSEDFTWEKPPEDPPDSKNTLVLFGAGFGAVITVVVIVVIIKCFCKHRSCFRRNEASRETNNSLTFGPEEALAEQTVFL
B2: WT mB7-1 mCherry [mouse] / WT mPD-L1 GFP [mouse] (parent complex)
chain 1: B1 chain 2
chain 2: not shown

Variants of B1 are the subject of one assay. The assay can be described thus: flow cytometry on cells; HEK 293 freestyle cells co-transfected with mB7-1 mCherry (mutant) and mPD-L1 GFP; 1 hour at room temperature; anti-human Alexa 647 secondary; mCherry & mPD-L1; read off a plot.
For chain 2 L59A, the response is approximately 99 % Bound.

For chain 2 L70D, the response is approximately 98 % Bound.

chain 2 K12A: the response is approximately 97 % Bound.

On to chain 2 R30D, for which the response was approximately 7.7 % Bound.

Variants of B2 are the subject of the next assay. The assay can be described thus: flow cytometry on cells (co-transfection competition); value is mPD-1 hIgG1 bound to cells co-expressing mB7-1 mutant mCherry and mPD-L1 GFP; higher value = less cis mB7-1:mPD-L1 binding; no-B7-1 control (mCherry &); read off a plot.
Regarding chain 1 K12A, the screen value is approximately 76 % Bound.

As for chain 1 L70D, the screen value was approximately 82 % Bound.

Regarding chain 1 L59A, the screen value is approximately 47 % Bound.
